Read counts are not given, so values of variants with three or more changes are uncertain.
B1: OR4K15 (parent)
chain: GUUAACGGUCAUAGGCCAUGGAAACUAGGAGCACCAUUUCGCUGCCAGUGAAGAAAUGAACAAAGAAAAUCUGGGCCAGGCAGGCAUCAAAAGAAAUAGUCUUGCGCUCAACCAGAAAGUCUGUAAUCAUUUUAAGGGUA

Variants of: B1
Assay: self-cleavage, relative activity (ratio to wild type); higher = more cleavage; in vitro, sequencing; the parent is a self-cleaving ribozyme

Variant	self-cleavage
U38C A52G A98G A118U	0.28
A92U U108C A129G	0.01
A82U A90G A94G	0.28
U38C A52U A59G A60G U97C A126G	0.61
U37C A78G A134U	0.08
U87A A110G A116U	0.06
U12C A95G A126G A140G	0.68
C25G U70C U120C	0.3
U38A A51G U97C U120A	0.09
A11G C71A U127C	0.15
A22G A86U G138U	1.26
A55G A114G A125G	0.12
U39C A78U A94G A117G	0.38
U43A A55G A64G	1.64
A22G U39A U57C A140U	0.98
A11C U37C U43C A78U	0.71
G14C A64G A117U	0.53
A33U A63U U124C	1.63
A5G A92G U103C	0.38
U2C A23G G53U U72C	0.11
A89G A98G G138A	0.61
U38C G74A A90U	0.82
U9C U12A A22G A111G	0.17
A59G A64G A86G A126G	0.71

Variant	self-cleavage
U2C A33G A111G	0.04
A23G A94G U102C	1.42
C10A U12C C109A A114G	0.26
A24G U39C A60G	0.83
A18G A23G U87A A94C	0.77
A23G G41A A51G A91G	0.27
A33G A51G A68G A69G A96U A129G	0.38
G14A A63G A66G A82G A92G A129U	0.21
A52G A62G A86G	0.85
A59G A60G U72A	0.27
A36G U43C A67G U100C C112G A140G	0.01
A11G U12C A30G	1.35
A92G A94G G99A	0.86
A24G U37C A82G	0.84
C6U A36G G75A U102A	0.1
A36G U37C A64C A86G	0.89
U43C A47G A114G	0.17
A24C A98G A134G	0.49
A63U U72C A129G	0.13
A18C A23G A63G A111G A116U	0.01
A30U A51G A140G	0.27
A27G U49C A92G U124C	1.29
U72G A92G A110U A129U	0.11
C6A U57C U87C U103C	0.36

Variant	self-cleavage
U37C C88A U131C	0.16
U9C U57C U100A U130C U132C	0.77
A30G U37C A51U C113G	0.02
U43C G58U U97C U120C	0.36
U3G U70A A91G	1.2
A33G U39A G106U	0.02
A51G U72A U87C A91G	0.17
U19A A66G A69G	1.22
G7A U12C C35A A68U U103C A111G	0.04
A68G A126G A129G A135G	0.71
U87C U103C U132G	0.32
A24G A94G U127A	1.63
A55G G75C A91G	0.07
A59G A92G A118G	0.56
A68G A114C A125G	0
A33G U49C A54G U70C	0.19
U87C A111G A126G	0.01
C16U A59G A89G U132C	1.34
A52G A55G A116G	0.3
A24G U26A A51G A86G	1.39
U19C A24U A63G	0.98
G53A A55G A66G A90G	0.94
U9C U37C A59G A60G U70C A86U U122A	0.19
U12C U38G U39C U103C	0.91

Variant	self-cleavage
G75A A86G U103A	0.09
A5G A27G U37C A94G	0.65
A11G A126G U130C	0.38
A56G A82U A98G C128U	0.05
A24U A111G U120C	0.01
G14A A24G U102A	0.85
A24U A51G A60C	1.59
U9C A56G A63G	1.81
C40U A60G U127C	0.72
A52G U70C A89G U103C	0.3
A68G A118G U131C	0.94
U102A U120C U132C	0.17
A11U U38C U57A	0.8
G15A A68G A110G	0.13
U49C A62G A92G C107A A114G U120A	0.03
A60U A91G A140G	1.14
U3C A60G A89G	1.3
A22G A64G A68U	1.02
A33G A82G A94G U120C	0.09
A33G A66G C71U U72C U102C	0.29
U19A A24G U37C A129G U131C	1.81
C16U A36U U70C	0.74
G80U U130G U131C	0.05
U87C A114U A117G	0.12

Variant	self-cleavage
U9C A56G A60G A95G	1.54
U70C A90G A91G A125G	0.02
A24C U49C A117G	1.99
A27U U49C A82U	0.17
A11U A52U A118G U124A	0.31
U97C A110G A134G	0.15
A18G G84U U102C	0.37
U2A U57C U108C	0.05
A5G A60G U103A	0.32
A33G A54U A68G A82U A95G U103C U131C	0.05
C25U U49A A86G A91G A117G	0.08
C10A A18G A55G	1.18
U2C C6U A24G A91U	0.44
U39C U122C A126G	1.14
A91U U100C U122C	2.35
U12C A67G A89G A92U	0.15
A27U U37C A63U	0.77
U70C G79U A96G A110U A117G	0.17
U49C A51G A67G A89G U131C	1.24
U43C U102C A126G	2.59
U43C A60G A69G U70C A78U	0.11
A54U U57C U103A	0.1
A18G G41A U43C A68G A94G U102C	1.98
U9C C17A A95G	1.32

Variant	self-cleavage
A54G A78U A98U A110U U132C	0.22
U2A A23G U70C G84A	1.26
U43C A55C A66G A91U	2.1
A23U A67G U108C U122C U130C	0.01
A33G U43C U120C	0.29
A22U A23U U39G A114U	0.16
A69G U108C U130C	0.01
A68G A78U A110G	0.07
G21C C71U U102C A116U A117G	0.09
U57C U72A A118G	0.09
U102C U108A U132C U139A	0
A4G A24G A30G	1.7
A94G A111G A117G U120C	0
C35U A126G U127A	0.32
A22G A27G G136A	2.31
U19C A55G G79A U100C U120C	0.05
A22U A114G U132A	0.23
U49C U127C U130C	0.56
U12A U38C A51G A52G G106A U124C	0.04
G104A A110G U132C U133A	0.01
U57A C61U A67C	2.31
A11U A30G A67G A95G U108A	0.01
U2C A27U C42U U108C	0.04
A30G A54G A59G C113U	0.09

Variant	self-cleavage
G1A A30G U87C	1.62
C113A U122C U130C U131C	0.01
A23G U72G A117U	0.3
A59G U97C U127A	2.42
A36U U37C A54U	1.7
A18G A36U A67G	2.38
A30G U70C C88A	0.64
A51G A62G U132C	1.65
A55G A82G U103A U108C U122C	0.01
U2A C6U A36U A59G A63G	1.41
A23G C32U A36G A98G C112U U122A	0.01
C34A C40U A86G U100C U124C	1.96
U2C A22G A91G A94G	1.19
A62G A64G A96G U103C	0.22
A24G A47G A66G	0.37
U2C A36U U39A A52G A67G A68G	0.97
A24G A30G U43C	0.72
A33G U120C A135U	0.39
U2C U37G A66G A96G A129G	1.47
A24U A52U U108C	0.02
C45U A91G A126G A129G	0.29
A18G A23G U130C U133C	1.5
A36G U38C A96U U103C	0

From the RNAGym collection of RNA variant scans (doi:10.7554/elife.90254)
